87 compounds from PMC4336329 (PLoS ONE, 2015) can be followed below.

Among all 310,000 compounds or so, about 2,200 (0.71%) showed an effect of 50% or more. The effect is printed as a negative number. Some of the results follow.

In this assay the target is human ether-à-go-go-related gene (hERG) potassium channel (human, UniProt Q12809). The experiment in a line: primary screen, population patch clamp on CHO cells stably expressing hERG.
human ether-à-go-go-related gene (hERG) potassium channel, sequence (Q12809 whole entry, looked up): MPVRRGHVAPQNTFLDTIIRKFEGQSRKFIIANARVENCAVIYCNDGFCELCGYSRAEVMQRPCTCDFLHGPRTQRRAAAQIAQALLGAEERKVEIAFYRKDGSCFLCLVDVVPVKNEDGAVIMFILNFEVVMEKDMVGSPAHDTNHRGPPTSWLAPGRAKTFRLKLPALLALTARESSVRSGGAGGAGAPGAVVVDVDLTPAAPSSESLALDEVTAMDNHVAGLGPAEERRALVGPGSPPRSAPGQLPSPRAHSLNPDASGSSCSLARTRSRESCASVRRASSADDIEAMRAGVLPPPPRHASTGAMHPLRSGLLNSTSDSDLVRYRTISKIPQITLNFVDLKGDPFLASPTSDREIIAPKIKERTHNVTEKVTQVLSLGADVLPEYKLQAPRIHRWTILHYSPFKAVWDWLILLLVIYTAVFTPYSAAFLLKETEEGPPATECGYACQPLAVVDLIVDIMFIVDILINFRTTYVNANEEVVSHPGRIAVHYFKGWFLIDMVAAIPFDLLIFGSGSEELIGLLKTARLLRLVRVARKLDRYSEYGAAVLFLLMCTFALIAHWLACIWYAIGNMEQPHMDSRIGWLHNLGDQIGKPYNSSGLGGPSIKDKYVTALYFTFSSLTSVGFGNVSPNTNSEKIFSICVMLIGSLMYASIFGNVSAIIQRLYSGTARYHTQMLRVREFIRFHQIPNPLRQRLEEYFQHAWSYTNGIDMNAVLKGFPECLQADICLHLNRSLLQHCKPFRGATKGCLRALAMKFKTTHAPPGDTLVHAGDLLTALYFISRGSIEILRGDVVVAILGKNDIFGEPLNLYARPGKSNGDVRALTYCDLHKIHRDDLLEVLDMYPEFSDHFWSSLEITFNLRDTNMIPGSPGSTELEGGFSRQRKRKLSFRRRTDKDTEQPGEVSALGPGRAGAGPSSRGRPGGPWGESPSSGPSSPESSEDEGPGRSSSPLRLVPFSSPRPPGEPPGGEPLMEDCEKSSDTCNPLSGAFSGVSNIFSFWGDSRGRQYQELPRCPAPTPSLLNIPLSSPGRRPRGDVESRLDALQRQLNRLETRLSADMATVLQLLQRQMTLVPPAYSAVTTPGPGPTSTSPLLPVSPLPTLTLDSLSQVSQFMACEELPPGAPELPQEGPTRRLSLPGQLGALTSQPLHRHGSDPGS
Regarding `COc1cc(/C=C(\C#N)C(=O)Nc2ccccc2F)ccc1OCCN1CCOCC1`, the “hERG current change (%, negative = inhibition) at 1uM” value is recorded as -25.6%. For `COc1ccc(N2CCN(C(=O)CCNC(=O)c3ccc(Br)cc3)CC2)cc1` the value was -5.96%; for `CCNc1ccc(S(=O)(=O)N(C)C)cc1NCC(=O)Nc1ccccc1Br`, -1.08%.

With `CC(C(=O)N1c2ccc(F)cc2CCC1C)N1C(=O)c2ccccc2C1=O` (stereo not drawn), the “hERG current change (%, negative = inhibition) at 1uM” value was found to be 7.93%. In the case of `Cc1cc(C)c(NC(=O)C(C)c2cccc(C(=O)c3ccccc3)c2)c(C)c1` (stereo not drawn), the “hERG current change (%, negative = inhibition) at 1uM” value is on record as 10.1%. For `COCc1cc(C)nc(OCC(=O)N/N=C/c2ccco2)c1C#N` the value was 6.5%.

For the compound `CC(=O)Nc1ccc(S(=O)(=O)N2CCN(C(=O)c3ncoc3-c3cccc(F)c3)CC2)cc1`, the “hERG current change (%, negative = inhibition) at 1uM” value is given as 15.5%. For `O=c1[nH]c(Cc2ccccn2)nc2scc(-c3ccccc3Cl)c12` the value was 1.45%. For `N#C/C(=C\c1ccc[nH]1)S(=O)(=O)c1ccccc1` the value was 16.6%. For `OC(CN1CCC(c2c[nH]c3ccccc23)CC1)C(F)(F)F` (stereo not drawn) the value was 14.6%. On to `CN(C)/C(=N\S(=O)(=O)c1ccccc1)c1ccc([N+](=O)[O-])cc1`, for which the “hERG current change (%, negative = inhibition) at 1uM” value amounted to 21.8%. For `O=C(Nc1ccccc1)C1CCCN1S(=O)(=O)c1cccs1` (stereo not drawn) the value was 24.8%. As to `Cc1ccc(C(=O)OCn2ncc(Cl)c(Cl)c2=O)cc1`, the “hERG current change (%, negative = inhibition) at 1uM” value was 1.93%.

Take `CC(C)Cn1c(-c2ccc(Cl)cc2)cnc1SCC(=O)N1CCOCC1`: the “hERG current change (%, negative = inhibition) at 1uM” value was found to be 14.1%. On to `CCOC(=O)N1CCN(C(=O)c2ccccc2NC(=O)c2ccc(C(C)(C)C)cc2)CC1`, for which the “hERG current change (%, negative = inhibition) at 1uM” value was found to be 1.59%. For `Cc1cccc(NC(=S)NC23CN4CN(CN(C4)C2)C3)c1` the value was 14.5%; for `CCC1Oc2ccccc2N(CC(=O)NCc2ccco2)C1=O` (stereo not drawn), 16.8%; for `Cc1onc(-c2c(Cl)cccc2Cl)c1NC(=O)N(C)N`, 11%.

`CCn1cc(Br)c(C(=O)NC(C)c2ccccc2)n1` (stereo not drawn): the “hERG current change (%, negative = inhibition) at 1uM” value is listed as 4.62%. As for `COC(=O)N1[C@H](C)C=C[C@]1(Cc1ccccc1)C(=O)NCCCNc1ncc(C(F)(F)F)cc1Cl`, the “hERG current change (%, negative = inhibition) at 1uM” value was found to be 6.81%. Regarding `Cc1ccc(C)c(NC(=O)c2ccc3nccnc3c2)c1`, the “hERG current change (%, negative = inhibition) at 1uM” value was 9.95%. For `COc1ccc(C2N(c3cc(C)on3)C(=O)C3CCCN32)cc1OC` (stereo not drawn) the value was 12.5%. Next, `Cn1c(=O)c2c(O)c(C=NCc3ccccc3)c(=O)n(C)c2n(C)c1=O`: 14.7%.

Take `CCOc1ccc(CCNC(=O)CSC(=S)N2CCCC2)cc1OCC`: the “hERG current change (%, negative = inhibition) at 1uM” value is 12%. For `CCN(Cc1ccccc1)C(=O)CC(=O)N(CC)Cc1ccccc1`, the “hERG current change (%, negative = inhibition) at 1uM” value amounted to 13%.

For the compound `Cn1cc(CCC(=O)N2CCCC(N3CCN(c4ccccc4F)CC3)C2)cn1` (stereo not drawn), the “hERG current change (%, negative = inhibition) at 1uM” value is recorded as 5.47%. Turning to `Cc1ccc(CNc2oc(-c3cccs3)nc2C#N)cc1`, the “hERG current change (%, negative = inhibition) at 1uM” value is 5.6%. As to `CC1CCc2c(sc(NC(=S)NC(=O)c3ccccc3)c2C#N)C1` (stereo not drawn), the “hERG current change (%, negative = inhibition) at 1uM” value turned out to be 13%. For `CCC(=O)N[C@@H]1CC(C(C)(C)NC(=O)CC)CC=C1C` (stereo partly drawn) the value was 12.9%.

As for `Cc1ccc(Sc2ncccc2C(=O)NC2CCCCCC2)cc1C`, the “hERG current change (%, negative = inhibition) at 1uM” value amounted to 5.75%. For `NC(=O)CN1C(=O)C(=O)N(Cc2cccc(C(F)(F)F)c2)C1=O` the value was 10%; for `O=S(=O)(c1ccc(Br)c2nsnc12)N1CCOCC1`, 8.84%. Next, `O=c1ccc2cc3ccoc3cc2o1`: 6.94%; `CN1C(=O)c2cccc3c(N(C)C)ccc(c23)C1=O`: 16.8%.

`O=c1c2sc3ccccc3c2[nH]c(=S)n1CCN1CCOCC1`: the “hERG current change (%, negative = inhibition) at 1uM” value is listed as 10.1%. For `CN(C)/N=C1\C(=O)N(CN2CCN(c3ccccc3)CC2)c2ccccc21` the value was 14.4%; for `CCn1cc(C(=O)NCCC(C)C)c(=O)c2cc(F)c(N3CCN(C)CC3)cc21`, 6.61%; for `S=C(Nc1ccc(Br)cc1Cl)NN1CCOCC1`, 8.09%.

Turning to `O=C(C1CC1)N1CCc2sccc2C1c1ccc(Cl)cc1` (stereo not drawn), the “hERG current change (%, negative = inhibition) at 1uM” value was determined as 8.67%.

`COc1cccc(NC(=O)c2ccc(-c3ccc([N+](=O)[O-])cc3)o2)c1`: the “hERG current change (%, negative = inhibition) at 1uM” value is -3.66%. Next, `CCOC(=O)CC(NC(=O)c1cccs1)c1ccc(OCC)cc1` (stereo not drawn): 5.23%. Next, `COc1ccc(N2CCN(C(=O)CCC(=O)N3CCOc4ccc(Cl)cc43)CC2)cc1`: 2.63%.

With `COC(=O)c1c(NC(=O)COC(=O)C2CCC2)sc(C)c1C`, the “hERG current change (%, negative = inhibition) at 1uM” value was found to be 9.43%.

For `Cc1cc2[nH]c(=O)c(=O)[nH]c2cc1S(=O)(=O)Nc1cccc(Cl)c1`, the “hERG current change (%, negative = inhibition) at 1uM” value is 17.9%. For `Cc1ccc(C)c(S(=O)(=O)N2CCN(C(=O)CCNC(=O)c3ccc(Br)cc3)CC2)c1` the value was 12.1%; for `Oc1ccc(N2CCN(c3nc(-c4cccs4)nc4ccccc34)CC2)cc1`, 14.9%. For `CN1CCN(NC(=O)Nc2ccc(F)cc2)CC1` the value was 18.6%.

As to `Cc1c(CCO)sc[n+]1CC(=O)OC12CC3CC(CC(C3)C1)C2.[Cl-]`, the “hERG current change (%, negative = inhibition) at 1uM” value was 12.4%. Next, `Cc1ccnc(NC(=O)C2CCN(S(=O)(=O)c3ccc4c(c3)CC(C)N4C(=O)C3CCC3)CC2)c1` (stereo not drawn): 15.6%; `Cc1ccc(Cl)cc1N1CCN(C(=O)c2ccc3c(c2)CCN3S(C)(=O)=O)CC1`: 14%.

As to `O=C1c2ccccc2S(=O)(=O)N1Cc1cc(=O)n2ccsc2n1`, the “hERG current change (%, negative = inhibition) at 1uM” value was determined as 7.45%. For `CCOCCCNC(=O)c1cc2cc3cc(OC)ccc3nc2o1` the value was 7.34%.

Turning to `COc1ccc(NC(=O)Cn2cnc3sc(C)c(S(=O)(=O)N4CCOCC4)c3c2=O)c(OC)c1`, the “hERG current change (%, negative = inhibition) at 1uM” value was 12.6%. For `COc1ccc(N(C)C(=O)c2ccc(NC(=O)CCS(=O)(=O)c3cccs3)cc2)cc1` the value was 16.4%; for `COc1ccccc1N(C)S(=O)(=O)c1ccc(C(=O)Nc2ccc(N3CCOCC3)cc2)cc1`, 8.26%; for `CCc1cc2c(NC(Cc3c[nH]c4ccccc34)C(=O)O)nc(C)nc2s1` (stereo not drawn), 18.1%. For `CCCc1nc(C)c2c(=O)[nH]c(-c3cc(S(=O)(=O)N4CCN(CC)CC4)ccc3OCC)nn12.O=C(O)CC(O)(CC(=O)O)C(=O)O` the value was 10.1%; for `Cc1ccc(S(=O)(=O)N(CC2CO2)c2cc(Cl)ccc2Cl)cc1` (stereo not drawn), -1.43%. For `O=c1c2ccc(Cl)cc2nc(-c2ccc([N+](=O)[O-])cc2)n1O` the value was 13%; for `Cc1cc(OCC(=O)NNC(=O)c2ccncc2)cc(C)c1Cl`, 16.9%; for `Cc1ccc(-c2csc3ncnc(Nc4ccc(C(=O)O)cc4)c23)cc1.Cl`, 5.36%. As to `CCC(=O)OC1CC(C)N(C(=O)c2ccccc2)c2ccc(C)cc21` (stereo not drawn), the “hERG current change (%, negative = inhibition) at 1uM” value amounted to 1.47%.

Consider `CCOc1ccccc1N1CCN(C(=O)C2c3ccccc3Oc3ccccc32)CC1`, for which the “hERG current change (%, negative = inhibition) at 1uM” value turned out to be 3.52%.

`CC1(C(=O)OCC(=O)Nc2cccc(S(=O)(=O)NC3=NCCCCC3)c2)CC1(Cl)Cl` (stereo not drawn): the “hERG current change (%, negative = inhibition) at 1uM” value worked out at 9.62%. Next, `COc1cc(CN2CC3CC(C2)c2cccc(=O)n2C3)cc(OC)c1OC` (stereo not drawn): 6.15%; `CCCCC1=CC2=CC(=O)C(C)(OC(=O)CC)C(=O)C2=CN1CCCOC(C)C` (stereo not drawn): 2.73%; `O=C(Nc1cccc(S(=O)(=O)N2CCCCC2)c1)c1ccc2c(c1)OCO2`: 8.6%. For `O=C(COc1coc(CN2CCN(c3ccc(F)cc3)CC2)cc1=O)NC1CCCC1` the value was -16.9%; for `Cc1cccc(NC(=O)c2ccc(S(=O)(=O)N3CCC(C)CC3)cc2)n1`, -15%; for `COc1cc(C)ccc1OCc1cc(C(=O)N2CCN(C3CCCCC3)CC2)no1`, 9.23%. For `Cc1ccc(S(=O)(=O)/N=C2\C=C(Nc3cccc(C(=O)O)c3)C(=O)c3ccccc32)cc1` the value was 13.8%. As for `Cc1cc(C(=O)CSc2ccc3c(c2)OCCO3)c(C)n1C1CC1`, the “hERG current change (%, negative = inhibition) at 1uM” value stood at 3.4%.

On to `O=C(/C=C/c1ccc(Cl)cc1)Nc1ccc(N2CCOCC2)cc1`, for which the “hERG current change (%, negative = inhibition) at 1uM” value amounted to 1.08%. Next, `CCOC(=O)c1cc2oc(C)cc2n1CC(=O)OC1CCCCC1`: 4.59%; `CSc1nc(N(C)C)c2ccccc2n1`: -6.21%.

Consider `CCOc1ccc(C2C=C(c3ccccc3)Nc3ncnn32)cc1` (stereo not drawn), for which the “hERG current change (%, negative = inhibition) at 1uM” value turned out to be 2.83%. In the case of `Cc1cc(C)cc(NC(=O)CSc2nc3c(c(=O)n2C)SC(C)C3)c1` (stereo not drawn), the “hERG current change (%, negative = inhibition) at 1uM” value stood at 10.2%. `O=C(NCc1cccc(Cl)c1)NC(=O)c1csc([N+](=O)[O-])c1`: the “hERG current change (%, negative = inhibition) at 1uM” value was 11.9%. For `CCC(Sc1nc(C)cc(=O)[nH]1)C(=O)Nc1nc2c(s1)CCCC2` (stereo not drawn) the value was 4.71%. Next, `CCOC(=O)N1CCC(NC(=O)c2cccn3c(=O)c4cc(Br)ccc4nc23)CC1`: 10.4%; `CCOC(=O)/C(=N/Nc1ccc(OC)cc1)Sc1nnc(CCc2ccccc2)n1-c1ccccc1`: 13%.

For `Cc1nc(SCC(=O)NCc2ccco2)nc(C)c1C`, the “hERG current change (%, negative = inhibition) at 1uM” value is given as 5.57%. Take `CC1Cc2ccccc2N1C(=O)COC(=O)CCc1nc2ccccc2c(=O)[nH]1` (stereo not drawn): the “hERG current change (%, negative = inhibition) at 1uM” value is recorded as -4.35%.

Take `O=C(NC(=O)c1ccccc1)Nc1ccc(-c2cnco2)cc1`: the “hERG current change (%, negative = inhibition) at 1uM” value was 16%. Next, `Cn1c(C(=O)NCCC2=CCCCC2)cc2c(=O)n3ccccc3nc21`: 15.1%.

On to `CCN(CC(=O)NCc1ccc(Cl)cc1)C(=O)/C=C/c1ccco1`, for which the “hERG current change (%, negative = inhibition) at 1uM” value was -2.84%. In the case of `COc1ccc(CCNC(=O)CCCN2C(=O)c3ccccc3C2=O)cc1`, the “hERG current change (%, negative = inhibition) at 1uM” value worked out at 12.8%.
